Measured values from PubChem BioAssay AID2451 (National Center for Advancing Translational Sciences (NCATS), 2010).
The campaign covered roughly 290,000 compounds. About 2,100 (0.72%) were called active. The shares of active, inactive and inconclusive entries below differ from those in the screen. The call rests on the fitted dose curve; in most records, active means well fitted inhibition curve with a large enough effect; inconclusive means small, poorly fitted or top-dose-only effect, or effect the other way; inactive means flat fitted curve, though single readings scatter. Where the call is inconclusive, the potency comes from a doubtful curve fit.

Molecular target: Fructose-bisphosphate aldolase (Giardia intestinalis (strain ATCC 50803 / WB clone C6)) (UniProt A8B2U2)
UniProt A8B2U2, sequence (A8B2U2 whole entry, looked up): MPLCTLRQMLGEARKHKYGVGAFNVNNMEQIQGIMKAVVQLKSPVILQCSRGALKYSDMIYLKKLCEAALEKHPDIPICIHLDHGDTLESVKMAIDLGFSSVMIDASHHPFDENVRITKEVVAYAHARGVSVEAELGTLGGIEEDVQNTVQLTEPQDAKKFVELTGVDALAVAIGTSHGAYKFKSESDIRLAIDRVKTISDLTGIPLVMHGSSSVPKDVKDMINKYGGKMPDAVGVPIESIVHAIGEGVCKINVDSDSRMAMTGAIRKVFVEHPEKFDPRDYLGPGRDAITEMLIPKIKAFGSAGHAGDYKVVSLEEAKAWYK
Test: qHTS Assay for Inhibitors of Fructose-1,6-bisphosphate Aldolase from Giardia Lamblia; further: nearly all actives have a fitted effect of over 55% in size
Conditions: purified Giardia FBPA; activity, negative = inhibition: at 59.6 µM (top of the series) unless noted
Summary of the method: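 Giardia FBPA (40 nM reagent) was preincubated 10 min at RT with compound (up to 57.5 uM final), then substrate plus GAPDH/TPI/NAD/arsenate coupling system with diaphorase/resazurin was added; resorufin fluorescence (525/598 nm) was read after 20 min.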
On the % scale 0 is the no-effect control and ±100 the full control effect; potency means the concentration at half of the fitted maximal effect; tags describe the fitted curve by direction and shape.

Question: How did the Potency turn out when CC(C)[C@@]1(NC(=O)[C@@H]2C=C3c4cccc5[nH]cc(c45)C[C@H]3N(C)C2)O[C@@]2(O)[C@@H]3CCCN3C(=O)[C@H](Cc3ccccc3)N2C1=O was run?
Answer: inconclusive: 3.15 µM [inhibitor, full curve]

Question: How did the “activity, negative = inhibition” value turn out when COCCn1c(=O)c(-c2ccccc2)nc2cnc(Oc3ccc(OC)cc3)nc21 was run?
Answer: inactive: -10.5%

Question: C/C(CC(=O)Nc1cc(Cl)ccc1Cl)=N\NC(=O)c1ccco1 was tested. Which “activity, negative = inhibition” value did it give?
Answer: inactive: -18.4%

Question: How did the Potency turn out when NS(=O)(=O)c1ccc(NC(=S)N2CCN(c3cccc(Cl)c3)CC2)cc1 was run?
Answer: inconclusive: 25.1 µM [inhibitor, single point]

Question: With Cc1ccnc(Nc2nc(-c3ccc(Cl)cc3)cs2)c1 as the compound, how does the “activity, negative = inhibition” value read?
Answer: inactive: 4.35%

Question: How did the “activity, negative = inhibition” value turn out when O=C(c1cccc(F)c1)N1CCN(C(=O)C(c2ccccc2)c2ccccc2)CC1 was run?
Answer: inactive: 20.8%

Question: Which Potency does the source give for [NH-]c1ncnc2c1N=C[N+]2=CC=CCO here?
Answer: active: 8.91 µM

Question: How did the Potency turn out when Nc1c(N2CCCC2)cc(Cl)c2nonc12 was run?
Answer: inconclusive: 0.446 µM [inhibitor, full curve]

Question: With CC(=O)Nc1ccccc1NC(=O)C/C(C)=N/NC(=O)c1ccccn1 as the compound, how does the Potency read?
Answer: inconclusive: 17.7 µM [inhibitor, partial curve]

Question: For COc1ccc(-n2nnc3c(SCC(=O)Nc4ccc5c(c4)OCCO5)ncnc32)cc1, which “activity, negative = inhibition” value is on record?
Answer: inactive: 3.57%

Question: For COc1ccc([C@H]2[C@H](C(=O)OC(C)(C)C)N3N=Cc4ccccc4C3C23C(=O)c2ccccc2C3=O)cc1OC (some centres not stated), which Potency is on record?
Answer: inconclusive: 7.06 µM [inhibitor, partial curve]

Question: How did the Potency turn out when CCOC(=O)C1=C(C)OC(N)=C(C#N)C1c1cc2ccccc2nc1N1CCCCC1 (configuration not stated) was run?
Answer: inconclusive: 17.7 µM [inhibitor, partial curve]

Question: Which Potency does the source give for O=C(O)c1cccc(NC(=S)N/N=C/c2cccnc2)c1 here?
Answer: inconclusive: 19.9 µM [inhibitor, partial curve]

Question: How did the Potency turn out when CC1(C(=O)Nc2cccc3ccccc23)CC1(Br)Br (configuration not stated) was run?
Answer: inconclusive: 7.06 µM [inhibitor, partial curve]

Question: With Cc1nonc1NC(=O)CSc1nc(C23CC4CC(CC(C4)C2)C3)nc2ccccc12 as the compound, how does the “activity, negative = inhibition” value read?
Answer: inactive: -8.07%

Question: How did the Potency turn out when Cc1ccc(C(=S)N2CCN(Cc3ccccc3)CC2)s1 was run?
Answer: active: 17.7 µM

Question: For CCn1c2ccccc2c2cc(NC(=O)c3ccc(Br)o3)ccc21, which “activity, negative = inhibition” value is on record?
Answer: inactive: -28.2%

Question: For N#Cc1cccc(NC(=O)N2CC[C@@]3(CCCN(C(=O)Oc4ccccc4)C3)C2)c1, which “activity, negative = inhibition” value is on record?
Answer: inactive: -8.97%

Question: How did the “activity, negative = inhibition” value turn out when Oc1ccc(-c2csc(Nc3ccccn3)n2)cc1O was run?
Answer: inactive: -16.6%

Question: Which Potency does the source give for S=C(NN=C1C2CC3CC(C2)CC1C3)Nc1ccccc1 here?
Answer: inconclusive: 8.89 µM [inhibitor, partial curve]

Question: How did the Potency turn out when COc1ccc(Cn2nnnc2C(c2cc3ccc(OC)cc3[nH]c2=O)N2CCC(C)CC2)cc1 (configuration not stated) was run?
Answer: inconclusive: 19.9 µM [inhibitor, partial curve]

Question: With COc1ccc(/C=N/n2cnc3c([nH]c4ccccc43)c2=O)cc1COc1ccccn1 as the compound, how does the Potency read?
Answer: inconclusive: 28.1 µM [inhibitor, single point]

Question: Oc1ccc(/C=N/n2cc(-c3ccccc3)[nH]c2=S)cc1 was tested. Which “activity, negative = inhibition” value did it give?
Answer: inactive: 3.71%

Question: With CCOC(=O)C(Sc1cc(-c2ccccc2)nc2ncnn12)C(C)=O (configuration not stated) as the compound, how does the Potency read?
Answer: inconclusive: 44.6 µM [inhibitor, single point]

Question: How did the “activity, negative = inhibition” value turn out when O=C(Cc1nc2ccccc2[nH]c1=O)c1ccccc1 was run?
Answer: inactive: -5.91%

Question: With Cc1ccc2cc(C#N)c(NCCCNC(=O)C3CCCO3)nc2c1 (configuration not stated) as the compound, how does the Potency read?
Answer: inconclusive: 15.8 µM [inhibitor, single point]

Question: With C(=N\Nc1ccc2nncn2n1)/c1ccccn1 as the compound, how does the Potency read?
Answer: active: 14.1 µM

Question: CCC12CC3CC(C1)CC(C(=O)Nc1nn[nH]n1)(C3)C2 was tested. Which Potency did it give?
Answer: inconclusive: 8.89 µM [inhibitor, partial curve, poor fit]

Question: Which Potency does the source give for Clc1ccc(OCc2nn[nH]n2)cc1 here?
Answer: inconclusive: 20 µM [inhibitor, single point]

Question: For O=C(O)COc1ccc(Br)cc1/C=N\Nc1ccccn1, which Potency is on record?
Answer: active: 11.2 µM

Question: How did the Potency turn out when CN1C(=O)C(Cc2ccc3c(c2)OCO3)C(=O)N(C)C1=O was run?
Answer: inconclusive: 5 µM [inhibitor, partial curve]

Question: How did the Potency turn out when CCN1C(=O)C2(C(C#N)=C(N)Oc3c2c(C)nn3-c2ccccc2)c2ccccc21 (configuration not stated) was run?
Answer: inconclusive: 3.98 µM [inhibitor, full curve]

Question: Which Potency does the source give for O=C(O)CN1C(=O)/C(=C/c2ccc(N3CCCCC3)o2)SC1=S here?
Answer: inconclusive: 19.9 µM [inhibitor, single point]

Question: How did the Potency turn out when CC1CCN(CC(=O)Nc2ccc(S(=O)(=O)N3CCC(C)CC3)cc2)CC1 was run?
Answer: inconclusive: 12.6 µM [inhibitor, partial curve]

Question: How did the Potency turn out when OC(c1ccc(Cl)cc1)c1nccc2ccccc12 (configuration not stated) was run?
Answer: inconclusive: 20 µM [inhibitor, single point]

Question: For Cc1ccc(NC(=O)CN(C)C(=O)COc2cccc3cccnc23)cc1, which Potency is on record?
Answer: active: 11.2 µM

Question: CC(C)C(=O)Nc1sc2c(c1C#N)CCCCC2 was tested. Which Potency did it give?
Answer: inconclusive: 17.7 µM [inhibitor, single point]

Question: Which Potency does the source give for CCSc1nnc(NC(=O)CSc2sc3c(O)cc(=O)[nH]c3c2C#N)s1 here?
Answer: inconclusive: 14.1 µM [inhibitor, partial curve]

Question: For Cc1c(NC2=C(Cl)C(=O)N(c3ccccc3)C2=O)c(=O)n(-c2ccccc2)n1C, which Potency is on record?
Answer: inconclusive: 17.7 µM [inhibitor, single point]

Question: With Nc1nc2c(c(=O)[nH]1)C(c1cccc3ccccc13)C1=C(N2)c2ccccc2C1=O (configuration not stated) as the compound, how does the Potency read?
Answer: inconclusive: 3.97 µM [inhibitor, full curve]

Question: CCCCCCC#Cc1cc(OC)c(OC)cc1C(N1CC(C)c2ccccc21)N1CC(C)c2ccccc21 (configuration not stated) was tested. Which activity, negative = inhibition did it give?
Answer: inactive: -7.96% [at 12.9 µM]

Question: How did the “activity, negative = inhibition” value turn out when COc1ccc(-c2nnc(SCc3csc(N)n3)n2C)cc1 was run?
Answer: inactive: -0.192%

Question: With CC(=O)Nc1cccc(Oc2ccc3c(c2)C(=O)NC3=O)c1 as the compound, how does the “activity, negative = inhibition” value read?
Answer: inactive: -20%

Question: For CCC(c1nnnn1CCc1ccccc1)N(Cc1ccco1)Cc1cc2c(C)ccc(C)c2[nH]c1=O (configuration not stated), which “activity, negative = inhibition” value is on record?
Answer: inactive: -9.41%

Question: Which Potency does the source give for COc1ccc(CN2CCN(Cc3ccccc3F)CC2)c(OC)c1 here?
Answer: active: 12.6 µM

Question: Which Potency does the source give for CCC1=C(OC(=O)N(CC)CC)N2C(=O)OC(=NCC3CC3)[C@]2(Cc2ccccc2)[C@H]2C1=CC[C@H]1C(=O)N(C)C(=O)[C@H]12 here?
Answer: inactive

Question: O=C(Nc1ccc2nc(-c3ccco3)c(-c3ccco3)nc2c1)N1CCCCCC1 was tested. Which Potency did it give?
Answer: inconclusive: 15.8 µM [inhibitor, partial curve]
